Here are results for 14 molecules from PMC12136788.

T1: UNK ZnF1-3 (human, UniProt Q9C0B0 31-174)
T1 sequence: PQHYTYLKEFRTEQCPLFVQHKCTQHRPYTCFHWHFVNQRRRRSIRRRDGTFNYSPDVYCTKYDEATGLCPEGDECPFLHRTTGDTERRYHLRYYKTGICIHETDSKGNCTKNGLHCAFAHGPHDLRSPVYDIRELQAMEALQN

B1: chr2:10930004:10930005:-_ENSG00000143870_ENST00000272227|hu_hu|FALSE|FALSE (ssRNA)
RNA: GGGAGUUCUACAGUCCGACGAUCGUCAUAAUCCACAGGAGACUCGCCUUUCUGAAAUAUCUUGAUUGUAGGAAAUCCUCUAAUCCCGUAUCGGGAGGCCAGAACCUGAUUGACUGUAGCAUCCACAGCUGCCAGUUUCACUUUCAACAGAGGAUUGAGCAUCA
B2: chr7:54825262:54825263:-_ENSG00000132432_ENST00000352861|hu_hu|FALSE|FALSE (ssRNA)
RNA: GGGAGUUCUACAGUCCGACGAUCCCGACUUGGCUCAACAAACUGCAUUACCUGAUCCAUGACUGCCUACCCAACCGACACCUAAAAUGCCAGGGACACGUAGCACUGGAGCUUGCUGAUGGAGGCCCACCGGAACCGGAAUCCCAACAGAGGAUUGAGCAUCA
B3: chr1:78444685:78444686:-_ENSG00000162613_ENST00000370768|hu_mus|FALSE|FALSE (ssRNA)
RNA: GGGAGUUCUACAGUCCGACGAUCGCCAGCCGAGCCAGACGACGGCGGAGGCACUGUGGAGUAGUCGGCCAUACCCACGCUACAGCACACGCUGCCGUUUCCUCGCGGAGGGAGGCGCCGCUCUCGGUUAACUGCUAAGAAAGGCAACAGAGGAUUGAGCAUCA
B4: chr9:35067926:35067927:-_ENSG00000165280_ENST00000358901|hu_mus|motif|central (ssRNA)
RNA: GGGAGUUCUACAGUCCGACGAUCUGGCUGGAUGCUGAUGACAUCUCCUAGGCGAACUCGGAGGUUAUUCCGAACAACUCGGUUCAUUCGAAUCUUCUCAUCAGAACACGUGUCAUCAGAAAGAACAAUGCAUACAGCUUCCCGCAACAGAGGAUUGAGCAUCA
B5: chr19:3980662:3980663:-_ENSG00000167658_ENST00000309311|hu_mus|FALSE|FALSE (ssRNA)
RNA: GGGAGUUCUACAGUCCGACGAUCGAACACUCUACCAAAGGCAUAGAAGCGGCCUUUGUCAGAGGUUGGCACCAUCUUGGAAAUGUACAUCAUAAGUGGGCCUUUGGGGUCGCAGCUCUUAAUACCCAUGGCGGCCUCAUCGUCCAACAGAGGAUUGAGCAUCA
B6: chr11:55313332:55313333:+_ENSMUSG00000018583_ENSMUST00000018727|mus_hu|motif|central (ssRNA)
RNA: GGGAGUUCUACAGUCCGACGAUCUCUUUAAAAGUCCGUUAUUCCUAAAAUAUCAUUCCACAAAAUUGGAAGUGAAAGACGGAAGGUCAGGAAAGGGAAGAGAGGGAGAGGGAGCACACACCAUUAACACACAAAAAAAGUAAACAACAGAGGAUUGAGCAUCA
B7: chr10:127182121:127182122:+_ENSMUSG00000044617_ENSMUST00000054287|mus_hu|FALSE|FALSE (ssRNA)
RNA: GGGAGUUCUACAGUCCGACGAUCGUCUCUUAUACAAAAGAGAUGCUGGGUAAUGUGUAUACAAAAACAAAAAUAAAUAAAUAUUAAUGUCCAAAAAGGCUUUGUGAGUUAAUGAAAACCACUUGCUUGUGAAACAGCCCGGGGCAACAGAGGAUUGAGCAUCA
B8: chr14:78183846:78183847:+_ENSG00000119705_ENST00000557342|hu_hu|hu_hu_hu_mus_False|68_88 (ssRNA)
RNA: GGGAGUUCUACAGUCCGACGAUCUCUCAGAAAUCUUUCUUCAUCAGCAUCAUCAGAUCCGUGCAAAAGUUUUGGCCUUUGAGCUUGAACGUGGAUCUAUGGGAGGGAAAGCACUGUCAGAAAAGGUAAUUUUUUUUUUAAAGACAACAGAGGAUUGAGCAUCA
B9: 35098351_35098679_1895_CDS_ENSMUSG00000024359_ENSMUST00000025217|mouse|control|control (ssRNA)
RNA: GGGAGUUCUACAGUCCGACGAUCGGAAAUCUCUUCCUUUAGCUUGUUGCACUCAUCAGCAGGCAACUGGUCCUUAAAUUCUUCCAUCUUGGUUUCUGUGUCAUGAAUAAUUCCUUCAGCCAUAUUAACUGCUUCAACACGUUCCAACAGAGGAUUGAGCAUCA
B10: chr6:160205776:160205777:-_ENSG00000120438_ENST00000420894|hu_mus|FALSE|FALSE (ssRNA)
RNA: GGGAGUUCUACAGUCCGACGAUCGAGCGCAUAGCCAUUGAUCAGCAUGCUUUCUAUCUGACUUCUCCCAUGGGCUUUCAGAAUAUUAACAGAAUUGACUGGAUAGCGAGGCUGGCCUCUGGCAUCUGUGUAUUUAACAGCAAGCAACAGAGGAUUGAGCAUCA
B11: chr12:48362563:48362564:+_ENSG00000134291_ENST00000256686|hu_hu|hu_hu_hu_mus_False|1_48 (ssRNA)
RNA: GGGAGUUCUACAGUCCGACGAUCUCCGUCAAGCCCUUCGAUAGACCCUUGCGGGGGAAACUGUAAUCACUUUGUAUGGGGAAGGAAAAAAAAAGCCAAAAACUUUCCAAAAAGCGGGGGUGGGGUGAGGCGGGAGGUUGGGAACAACAGAGGAUUGAGCAUCA
B12: chr17:64801638:64801639:+_ENSG00000154229_ENST00000413366|hu_mus|hu_hu_hu_mus_False|1_108 (ssRNA)
RNA: GGGAGUUCUACAGUCCGACGAUCUAUAAAUACAUAUACAUAUGUACACAUAUAUAGUAAAACCCUAGUUAAACGUGUAAAGUAGCCAUUCAUUUUUAAAAUUACAUCUACAUUAAAAAAUUAAUAUAUCUGAUAGAGUGCCCACAACAGAGGAUUGAGCAUCA
B13: chr1:35656432:35656433:-_ENSG00000116560_ENST00000357214|perfect_dup|FALSE|FALSE (ssRNA)
RNA: GGGAGUUCUACAGUCCGACGAUCAGAUCUUCCGCGAUCAUCCACAAUUACAACAGCCCUUUCAAUAGGACCAAACUGGCUAAAGGCCUCUUCCAAAAGUUCGUUGGAAACAUAAGGAGAGAGAUUUCGAACAGACAGGGCUGCCAACAGAGGAUUGAGCAUCA
B14: chr2:127988141:127988142:+_ENSMUSG00000027381_ENSMUST00000110341|mus_hu|motif|central (ssRNA)
RNA: GGGAGUUCUACAGUCCGACGAUCCUGUCAAAAUUCAUCAGUGCAAAACACAAGUAAGCCAGGGAAACUGCAAUACAAAUGCGGCAUACGCUGGGUCCUAGAAAACAGGUUAGUGAUGGAUCAGUAUACAGCCAGAUCAGUGCUCAACAGAGGAUUGAGCAUCA

The other results are listed elsewhere or left out.

This experiment concerns the target T1, UNK ZnF1-3. The experiment in a line: nsRBNS (natural sequence RNA bind-n-seq); RBNS binding buffer (assumed for nsRBNS): 25 mM Tris pH 7.5, 150 mM KCl, 3 mM MgCl2, 0.01% Triton X-100, 500 ug/ml BSA, 20 U/ml SUPERase-In, 4 C; UNK is unkempt and MSI1 is Musashi-1; names of the RNAs are library labels; protein concentration not given here; high values mean tight binding.
In turn, B1 showed a binding signal of 1.15 enrichment R.
To B2 belongs 1.22 enrichment R; to B3, 0.78 enrichment R.
To B4 belongs 0.663 enrichment R.
To B5 belongs 1.18 enrichment R.
In the case of B6, the binding signal is 3.11 enrichment R.
Next, B7: 1.16 enrichment R; B8: 2.35 enrichment R.
To B9 belongs 0.598 enrichment R; to B10, 1.22 enrichment R.
B11: the binding signal turned out to be 2.45 enrichment R.
The molecule B12 registered a binding signal of 1.64 enrichment R.
The molecule B13 came in with a binding signal of 1.07 enrichment R.
To B14 belongs 1.3 enrichment R.
